The chains are these.
B1: TPR 5TU (parent)
chain: GGAUCUUCUCGAUCUAACAAAAAAGACAAAUCUGCCACAAAGCUUGAGAGCAUCUUCGGAUGCAGAGGCGGCAGCCUUCGGUGGCGCGAUAGCGCCAACGUUCUCAACUAUGACACGCAAAACGCGUGCUCCGUUGAAUGGAGUUUAUCAUG

This sample is rich in variants without activity. Some results are limits rather than exact numbers.

Variants of B1 are the subject of the data set. Description: polymerase ribozyme fitness, log enrichment relative to wild type (log ratio); higher = more active; in vitro selection for triplet polymerase activity. The method, boiled down:
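Mutant libraries of both subunits of a heterodimeric triplet polymerase ribozyme were PCR-built, transcribed, and selected once in triplicate, with frozen incubation at −7 °C and capture of gel-excised extended constructs on streptavidin beads before RT-PCR. Illumina sequencing of input and output libraries was filtered to genotypes with ≥10 input reads and ≥1 read per output. Fitness is the logarithm of genotype enrichment over wild-type enrichment, using inverse-variance-weighted replicate averages. The logarithm is base 2.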
As for GGCUCUUCUCGAUCUUACAAAAAAGACAAAUCUGCCACAAAGCUUGAGAGCAUAUUCGGAUGCAGAGGCGGCAGCCUUCGGUGGCGUGAUAGCGCCAACGUUCGCAACUAUGACACGCAAAACGCGUGCUCCGUUGAAUGCAGUUUAUCAUG, the “polymerase ribozyme fitness (log ratio)” value was at most -4.2.
For GGCUCUUCUCGAUCUAACAACAAAGACAAAUCUGACACAAAGCUUGAGAGCAUCUUCGGAUGCAGAGGCGGCAGCCUUCGGUGGUGCGAUAGCGCCAACGUUCUCAACUAUGACACGCAAAACGUGUGCUCCGUUGAAUGGAGUUUAUCAUG, the “polymerase ribozyme fitness (log ratio)” value was at most -4.2.
The same measure for GGCUCUUCUCGAUCUAACAAAAAAGACAAAUCUGCCACAAAGCUUGAGAGCAUCUUCCGAUGUAGAGGCGGCAGCCUUCGGUGGCGCGAUAGCGGCAACGUUCUCAACUAUGACACGCAAAACGCGUGCUCCGUUGAAUGGAGUUUAUCAUG: -1.68; for GGCUCUUCUCGAUCUAACAAAAAAGACAAAUCGGCCACCAAGCUUGAGAGCCUCUUCGGAUGCAGAGGCGGCAGCCUUCGGUGGCGCGAUAGCGCCAACGUUCUCAACUGUGACACGCAAAACGCGUGCUCCGUUGAAUGGAGUUUAUCAUG: at most -4.2; for GGCUCUUCUCGAUCUCACAAAAAAGACAAAUCUGCCACAAAGCUUGAGAGCAUCUUCAGAUGCAGAGGCGGCAGCCUUCGGUGGCGCGAUCGCGCCAACGUUCUCAACUAUGACACGCAAAACGCGUGCUCCGUUGAAUGGAGUUUAUCAUG: at most -4.2.
The same measure for GGCUCUUCUCGAUCUAACAAAAAAGACAAAUCUACCACAAAGCUUGAGAGCAUCUUCGGAUGCAGAGGCGGCAGCCUUCGGUGGCGCGAUAGCGCGAACGUUCUCAACUAUGUCACGCAAAACGCGUGCUCCGUUGAAUGGAGUUUAUCAUG: at most -4.2; for GGCUCUGCUCGAUCUAACAAAAAAGACAAAUCUGCCACAAAGCUUGAGAGCAUCUUCGGAUGCAGAGGCGGCAGCCUUCGGUGGCGUGAUAGGGCCAGCUUUCUCAACUAUGACACGCACAACGCGUGCUCCGUUGAAUGGAGUUUAACAGG: at most -4.2; for GGCUCUUCUCGAUCUAUCAAAAAAGUCAAAUCUGCCACAAAGCUUGAGAGCAUAUUCGGAUGCAGAGGCGGCAGUCUUCGGUGGCGCGAUAGUGCCAACGUUGUCAACUAUGACACGCAAAACGCGUGCUCCGUUGAAUGGACUUUAUCAUG: at most -4.2.
The same measure for GGCUCUUCUCGAUCUAACAAAAAAGACAAAUCUGCCACAAAGCUUGAGAGCAUCUUCGGAUGCAGAGGCGGCAGCCUUCGGUGGCGCGAUAGCGCCUACGUUCUCAACUAUGACACGCAAAACGCGUGCUCCGUGGAAUCGAGUUUAUCAUG: at most -4.2; for GGCUCUUCUCGAUCUAACAAAAAAGACACAUCUGCCACAAAGCUUGAGAGCAUCUUUGGAUGCAGAGGCGGCAGCCUUCGGUGGCGCGAUAGCGCCAACGGUCUCAACUAUGAUACGCAAAACGCGUGCUCCGUUGAAUGAAGUUAAUCAUG: at most -4.2; for GGCUCUUCUCGGUCUAACAAAAAACACAAAUCUGCCACAAAGCUUGAGAGCCUCUUCGGAUGCAGAGGCGGCAGCCUUCGGUGGCGCGAUAGUGCCAACGUUCUCAACUAUGACAAGCAAAACGCGUGCUCCGUUGAAUGGAGUUUAUCAUG: -3.91.
Take GGCUCUUCUCGAUCUAACAAAAAAGACAAAUCUGCCACAAAGCUUGAGAGCAUGUUCCGAUGCAGAGGCGGCAGGCUUCGGUGGCGCGAUAGCACCAACGUUCUCAACUAUGACACGCAAAACGCGUGCUCCGUUGAAUGGAGUUUAUCAUG: the “polymerase ribozyme fitness (log ratio)” value was at most -4.2.
Regarding GGCUCUUCUGGAUCUAACAAAAAAGCCAAAUCUGCCACAAAGCUUGGGAGCAUCUUCGGAUGCAGAGGCGGCAGCCCUCGGUGGUGCGAUAGCGCCAACGUUCUCAACUAUGACACACCAAACGCGUGCUCCGUUGAAUGGAGUUUAUCAUG, the “polymerase ribozyme fitness (log ratio)” value is at most -4.2.
For the variant GGCUCUUCUCGAUCUUACAAAAAAGACACAUCUGCCACAAAGCUUGAGAGCAUCUUCGGAUGCAGAGGCGGCAGCCUUCGGUGACGCGAUAGCGCCAACGUUCUCAACUAUGACACGCAAAACGCGUGCUCCCUUGAAUGGAGUUUAUCAUG, the “polymerase ribozyme fitness (log ratio)” value is at most -4.2.
The result for GGCUCUUCUCGAUCUAACAAAAAAGACGAAUCUGCCUCAAAGCUUGAGAGCUUCUUCGGAUGCAGAGGCGGCAGCCUUCGGUUGCGCGAUAGCGCCAACGUUCUCAACUAUGACACGCAAAACGCGUGCUCCGUUGAAUGGAGUUUAUCAUG reads at most -4.2.
For the variant GGCUCUUCUCGAUCUAACAAAAAAGACAAAUCUGCCACAAAGUUUGAGAGCAACUUCGGAGGCAGAGGCGGCAGCCUUCGGUGGCGCGAUAGCGCCAACGGUCUCAACUAUGACACGCAAAACGCGUGCUCCGUUGAAAGGAGUUUAUCAUG, the “polymerase ribozyme fitness (log ratio)” value is at most -4.2.
The result for GGCUCUUCUCGAUCUAACAAAAAAAACAAAUCUGCCACAUAGCUUGAGAGCAUCUUCGGAUGCAGAGGCGACAGCCUUCGGUGGUGCGAUAGCGCUAACGUUCUCAACUAUGACACGCCAGACGCGUGCUCCGUUGAAUCGAGUUUAUCAUG reads at most -4.2; that for GGCUCUUCUCGAUCUAACAAAAAAGACAAAUCUGCCACAAAGCUUGAGAGCAUCUUCAGAUGCAGAGGCGGAAGCCUUCGAUGGCGCGAUGGCGCCAACGUUCUCAACUAUGACACGCAAAACGCGUGCUCCGUUGAAUGGAGUUUAUCAUG, at most -4.2; that for GGCUCUUCUCGAUCUAAGAAAAAAGACAAAUCUGCCACAAAGCUUGAGAGCAUCUAAGGAUGCAGAGGCGGCAGCCUUCGGUGGCGCGAUAGGGCCAACGUUCUCAACUAUGACACGCAAAACGCGUGCUCCGUUGAAUGGAGUUGAUCAUG, at most -4.2.
On to GGCUCUUCUCGUUCUAACAAAAAAGACAAAUCUGCCACAAAGCUUGAGAGCAUCAUCGGAUGCAGAGGCGGCAGAAUUCGGUGGCGCGAUAGCGCCAACGUUCUUAACUAUGACACGCAAAACGCGUGCUUCGUUGAAUGGAGUUUAUCAUG, for which the “polymerase ribozyme fitness (log ratio)” value is at most -4.2.
Take GGCUCUUCUCGAUCUAACAAAAAAGACAAAUCUGCCACAAAGCUUGAGAGCAUCUUCGGAUGCAGAGGCGGCAGCCUUCGGUGGCGCGAUAGAGCCAUCGUUCUCAACUAUGACACGCAAAACGCGUGCUCCGUUGAAUGGAGUUUAUCAUG: the “polymerase ribozyme fitness (log ratio)” value was -1.79.
Regarding GGCUUUUCUCGAUCUAACAAAAAAGACAAAUCUGCCACAAAGCUUGAGAGCAACUUCGGAUGCAGAGGCAGCAGCCUUAGGUGGCGCGAUAGCACCAACAUUCUCAACUAUGACACGCAAAACGCGUGCUCCGUUGAAUGGAGUUUAUCAUG, the “polymerase ribozyme fitness (log ratio)” value was at most -4.2.
For the variant GGCUCUUCUCGAUCUAACAAAAAAGACAAAUCUGCCACAAAGCUUGAGAGCAUCUUCGGAUGCAGAGGCGGCAGCCUUCGGUGGUGCGAUAGCGCCAACGUUCUCAACUAUGACACGCAAAACGCGUGCUCCGUUGAAUGGAGUUUAUCAUG, the “polymerase ribozyme fitness (log ratio)” value was -1.46.
The result for GGCUCUUCUCGAUCUAACAAAAAAGACAAUUCUGCCACAAAGCUUGAGAGCAUCUUCGGAUGCAGAGGCGGCAGCCUUCGGUGGCGCGAUAGUGCCAACGUUCUCAACUAUGACGCGCAAAACGCGUGCUCCGUUGAAUGGAGUUUAUCAUG reads at most -4.2; that for GGCUCUUCUGGAUCUAACAAAAAAGACAAAUCUGCCACAAAGCUUGAGCGCAUUUUCGGUUGCAGAGGCGGCAGCCUUCGGUGGCGCGAUCGCGCCAACAUUCUCAACUAUGACACGCAAAACGCGUGCUCCGUUUAACGGAGUUUAUCAUG, at most -4.2.
The same measure for GGCUCUUCUCGAUCUAACAAAAAGGUCAAAUCUGCCACAAAGCUUGAGAGCAUCUUCGGAUGCAGUCGCGGCAGCCUUCGGUGGCGCGAUAGCGCCAACGUUCGCAACUAUGACACGCAAAACGCGUGCUCCGUUGAAUGGAGUUUAUCGUG: at most -4.2; for GGCACUUCUCGAUCUAACAAAAAAGACAAAUCUGCCACAAAGCUUGAGAGCAUCUUCGGAUGCAGAGGCGGCAGCCUUCGGUGGCGCGAUAGCGCCAACGUUCUCAACUAUGACACGCAAGACGCGUGCUCCGUUGAAUGACGUUUAUCAUG: -4.03; for GGCUCUUCUCGAUCUAACAAAAAAGACAAAUGUGCCACAAAGCUUGAGACCAUCUUCAGAUGCAGAGGCGGCAGCCUUCGGUGGAGCGCGAGCGCCAACGUUCUCAACUAUGACACGCAAAACGCGUGCUCCGUUGAAUGCAGUUUAUCAUG: at most -4.2.
As for GGCUCUUCUCGAUCUAACAAAAAAGACAAAUCUGCCCCAAAGCUUGAGAGCAUCUUCGGAUGCAGAGGCGGCAGCCUUCGGAGGCGCCAUAGCGCCAACGUGCUCAACUAUGUUACGCAAAACGCGUGCUCCGUUGAAUGGAGUUUAUCAUG, the “polymerase ribozyme fitness (log ratio)” value is at most -4.2.
The same measure for GGCUCUUCUCGAUCUAACAAAAAAGACAAAUCUGCCACAAACCUUGAGAGCAUCUUCGGAUGCAGAGGCGGCAGCCUUCGGUGGCGCGAUAGCGCCAACGUUCUCAACUAUGACACGCAAAGCGCGUGCUCUGUUGCAUGGAGUUUAUCAUG: at most -4.2; for GGCUCUUGUCGAUCUAACAAAAAAGACAAAUCUGCCACAAAGCUUGAGAGCAUCUUCGGAUGCAGAGGCGGCAGCUUUCGGUGGCGAGAUAGCGCCAACGUUCUCUACUAUGACACGCAAAACGCGUGCUCCGUUGAAUGGAGUUUAUCAUG: at most -4.2; for GGCUCUUCUCGAUCUAACAAAAUAGACAAAUCUGCCACAAAGCACGAGAGCAUCUUCGGAUGCAGAGGCGGCAGCCUUCGGUGGCGCGAUAGCGUCAACGUUCUGCACUAUGACACGCAAAAUGCGUGCUCCGUUGGAUGGAGUUUAUCAUG: at most -4.2.
Regarding GGCUCUUUUCGAUCUAGCAAAAAAGACGGAUCUGCCACAAAGCUUGAGAGCAUCUUCGGAUGCAGAGGCGGCACCCUUCGGAGGCGCGAUAGCGCAAACGUUCUCAACUAUGACGCGCAAAACCCGUGCUCCGUUGAAUGAAGUUUAUCAUG, the “polymerase ribozyme fitness (log ratio)” value was at most -4.2.
As for GGCUCUUCUCGAUCUAACAAAAAAGACAAAUCUGCCACAAAGCUUGAGAGCAUCUUCGGAUGCAGAGGCGGCAGCCUUCGGUGGUGCGAUAGCGUCAACGUUCUCAACUAUGAUACGCAAAACGCGUGCUCCCUUGAAUGGAGUUUAUCAUG, the “polymerase ribozyme fitness (log ratio)” value was at most -4.2.
The result for GGCUCUUCUCGAUCUAACAAAAAAGACAAAUCUGCCACAAAGCUUGAGAGCCUCAUAGGAUGCAGAGGCGGCAGCCUUCGAUGGCGCGAUAGCCCCAACGUUCUCAACUAUGACACGCAAAACGCGUGCUCCGUUGAAUGGAGUUUAUCAUG reads -4.03; that for GGCUCUUCUGGAUCUACCAAAAAAGAGAAAUCUGCCAAAAAGCUUGAGAGCAACUUCGGAUGCAGAGGCGGCAGCCUUCGGUGGCGCGAUAGCGCCAACGUUCUCAACUAUGACACGCAAAACGCGUGCUCCGUUCAAUGGAGUUUAUUAUG, at most -4.2; that for GGCUCGUCUCGAUCUAACAAAAAAGACAAAUCUGCCACAAAGCUUCAGAGCAUCUUCGGAUGCAGAGGCGGCAGACUUAGGUGGCACGAUAGCGCCAACGUUGUCAACUAUGACACGCAAAACGCUUGCUCCGUUGAAUGGAGUUUAUCAUG, at most -4.2.
The result for GGCUCUUCUCGAUCUAACAAAAAAGACAAAUCUGCCACAAAGCUUGAGCGCAUCUUCGGGUGCAGAGGCGGCAGCCUUCGGUAGCGCGAUAGCGCCAACGUUCUCAACUAUGACACGCAAAACGCGUGCUCCGUUGAAUGGAGUUUAUCAUG reads at most -4.2.

These data come from the RNAGym collection of RNA variant scans (doi:10.1073/pnas.2313332121).
